Assay results taken from PubChem BioAssay AID360 (National Center for Advancing Translational Sciences (NCATS), 2006).
The campaign covered roughly 48,000 compounds. About 550 (1.1%) were called active. Roughly 4% stayed inconclusive and do not appear here. No stated cut-off is given here; in the data, active means potency below about 15 µM; inconclusive means mostly about 16 µM to 33 µM; inactive means weaker than that. The list shows a part of the results.

Biological target: Lysosomal acid glucosylceramidase (Homo sapiens) (UniProt P04062)
UniProt P04062, sequence (P04062 whole entry, looked up): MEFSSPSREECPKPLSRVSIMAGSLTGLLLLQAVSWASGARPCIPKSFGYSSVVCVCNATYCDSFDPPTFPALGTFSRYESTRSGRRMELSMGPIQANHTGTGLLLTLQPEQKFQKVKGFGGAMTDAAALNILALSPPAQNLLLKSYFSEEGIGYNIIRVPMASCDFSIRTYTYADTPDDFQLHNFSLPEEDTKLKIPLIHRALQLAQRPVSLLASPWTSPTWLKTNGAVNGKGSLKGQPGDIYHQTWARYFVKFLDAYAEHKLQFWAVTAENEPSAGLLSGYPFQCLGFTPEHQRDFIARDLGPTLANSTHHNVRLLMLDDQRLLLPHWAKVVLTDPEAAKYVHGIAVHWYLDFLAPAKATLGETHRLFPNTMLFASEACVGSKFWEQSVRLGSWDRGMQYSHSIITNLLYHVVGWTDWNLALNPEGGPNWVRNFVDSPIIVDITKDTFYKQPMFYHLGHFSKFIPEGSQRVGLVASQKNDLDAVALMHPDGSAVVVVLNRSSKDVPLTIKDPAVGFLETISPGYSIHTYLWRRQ
Test: Glucocerebrosidase;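 further: the screen sought inhibitors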
Settings: purified enzyme, resorufin glucoside fluorescence (screen aimed at inhibitors), 20 min
Method in brief: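 Compounds titrated against 0.2 nM normal enzyme, 30 uM resorufin beta-D-glucopyranoside substrate, citrate/phosphate buffer with taurocholate and tween-20, pH 5.9. Reaction ran 20 min at room temperature; fluorescence (Ex 548/Em 600) gave AC50.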
Potency means the concentration at half of the fitted maximal effect.

Potency, inactive:
C=CCn1c(SCc2csc(C)n2)nc2sc3c(c2c1=O)CCCCC3 > 76.9 µM
Nc1c(C(O)(C(F)(F)F)C(F)(F)F)ccc2ccccc12
CC(C)C[C@H](NC(=O)N1CCN(c2ccccc2)CC1)C(=O)O > 76.9 µM
CCCN1C2=NCCN2c2ccccc21 > 76.9 µM
O=C(CN1C(=O)c2ccccc2S1(=O)=O)N1CCN(c2ccccc2)CC1 > 76.9 µM
CCCCNS(=O)(=O)c1cccc(S(=O)(=O)N2CCCC2)c1 > 76.9 µM
COCc1cc(=O)n2c(-c3ccccc3OC)n[nH]c2n1 > 76.9 µM
Cc1cccc(N(Cc2nnc3n2CCCCC3)C(=O)Nc2ccccc2)c1 > 76.9 µM
CNC(=O)C1CCC(=O)N1Cc1ccc(C)cc1 (configuration not stated) > 76.9 µM
CCc1ccc2[nH]c(=O)c(CN(CCCN3CCOCC3)C(=O)Nc3ccc(Cl)cc3)cc2c1
Cc1csc(SCC(=O)N2CCN(S(=O)(=O)c3ccc(Cl)cc3)CC2)n1 > 76.9 µM
O=C1CN(C(=O)CN2CCCC2)C(c2ccccc2)c2cc(Br)ccc2N1 (configuration not stated) > 76.9 µM
CN1C(=O)C(O)(c2sc(N)nc2-c2ccccc2)c2ccccc21 (configuration not stated) > 76.9 µM
COc1ccc(C(=O)Nc2cc(OC)ccc2OC)cc1 > 76.9 µM
COc1nc(-c2ccccc2)cc(-c2ccccc2)n1 > 76.9 µM
CCN(CC)CCCN1C(=O)C(=O)/C(=C(/O)c2cnn(-c3ccccc3)c2C)C1c1ccncc1 (configuration not stated) > 76.9 µM
COc1ccc(-c2noc(CCC(N)=O)n2)cc1OC > 76.9 µM
Cc1cc(C)n(CC(O)COCc2ccco2)n1 (configuration not stated) > 76.9 µM
COc1ccc(CCNC(=O)CSc2nnc(Cn3c(=O)sc4ccccc43)n2C)cc1OC > 76.9 µM
CCC(=O)Nc1nonc1-c1nc2ccccc2n1CC(C)C > 76.9 µM
Cn1nnnc1SCc1ccc(C(=O)Nc2nccs2)cc1 > 76.9 µM
CCOc1ccc(C2C(C(=O)c3ccco3)=C(O)C(=O)N2Cc2cccnc2)cc1 (configuration not stated) > 76.9 µM
O=c1c2ccccc2nnn1CSc1nc2cc(Cl)ccc2c(=O)n1Cc1ccco1 > 76.9 µM
Cc1ccc(-c2noc(CCC(=O)N3CCN(c4cccc(C(F)(F)F)c4)CC3)n2)cc1 > 76.9 µM
O=C(CSc1n[nH]c(-c2ccncc2)n1)NC1CCS(=O)(=O)C1 (configuration not stated) > 76.9 µM
Cc1sc2nc3c(C(=O)N4CCN(c5ncccn5)CC4)cccn3c(=O)c2c1C > 76.9 µM
CN(C)CCCN1C(=O)C(=O)/C(=C(/O)c2ccc3c(c2)OCO3)C1c1ccccn1 (configuration not stated) > 76.9 µM
COc1cc(NC(=O)CN(C)S(=O)(=O)c2ccc(C)cc2)cc(OC)c1
Cc1nc(C)c2c(c1C(F)(F)F)-c1ccccc1C2(F)F > 76.9 µM
CC(C)COC(=O)NCCOC(=O)Nc1cccc(Cl)c1 > 76.9 µM
CCSc1nc(-c2ccccc2)c(C#N)c(=O)[nH]1 > 76.9 µM
CSc1ccccc1NC(=O)CSc1nnnn1-c1ccccc1SC > 76.9 µM
Cc1ccc(C(=O)NCc2occc2C(=O)O)o1 > 76.9 µM
Cc1oc(C(C)(C)C)c(CN2CCCC2)c1C(=O)O > 76.9 µM
O=C(Cn1ncc2c(=O)oc3ccccc3c21)NC1CC1 > 76.9 µM
CCCc1cc2c(cc1NS(=O)(=O)c1ccc(CCNC(C)=O)cc1)OCO2 > 76.9 µM
C=CCN1CCN(C(c2ccc(OC)c(OC)c2)c2nnnn2C(C)(C)C)CC1 (configuration not stated)
O=C(NC1CCCCC1)N(Cc1cc2cc3c(cc2[nH]c1=O)OCCO3)CC1CCCO1 (configuration not stated) > 76.9 µM
CCC(C)[C@H](NC(=O)NCc1ccccc1Cl)C(=O)OC (some centres not stated) > 76.9 µM
COC(=O)CCC(=O)COc1ccccc1C#N > 76.9 µM
CCCOc1ccc(Cn2c(=O)oc3ccc(C)cc32)cc1OC > 76.9 µM
CCOC(=O)c1ccc(CNS(=O)(=O)c2c(C)ccc3nsnc23)o1 > 76.9 µM
O=C(Cn1c(=O)n(-c2ccc(F)cc2)c(=O)c2sccc21)N1CCCC1 > 76.9 µM
CCN(CC)c1nc2n(c(=O)n1)CCO2 > 76.9 µM
O=C(NCC(=O)N(c1cccnc1)C(C(=O)NCc1ccco1)c1ccccc1)c1ccco1 (configuration not stated) > 76.9 µM
OC(COc1ccc(Cl)c2ccccc12)CN1CCN(c2ccccn2)CC1 (configuration not stated)
Cc1nc2ccc3nc(NC(=O)c4ccc(S(=O)(=O)N5CCOCC5)cc4)sc3c2s1 > 76.9 µM
CC(C)n1c(Nn2cnnc2)nc2ccccc21 > 76.9 µM
CC(=O)N1C2CCCCC2S[C@H]2CCCCC21 (some centres not stated) > 76.9 µM
COc1ccc(NC(=O)CN2CCC(C)CC2)cc1 > 76.9 µM
COC(=O)c1ccc(OCC(O)CN(CCO)CCO)cc1 (configuration not stated) > 76.9 µM
CN(C)S(=O)(=O)n1cnc2ccccc21 > 76.9 µM
CCCc1nnc(SCC(=O)N2CCCC2)n1CC1CCCO1 (configuration not stated) > 76.9 µM
COCCn1c(SCCN2CCCCC2)nc2ccccc2c1=O > 76.9 µM
O=C(CSc1nnc(C2COc3ccccc3O2)o1)N1CCOCC1 (configuration not stated) > 76.9 µM
CCCN(CCC)CCNC(=O)C1CCCN(S(=O)(=O)c2ccc3c(c2)oc(=O)n3C)C1 (configuration not stated) > 76.9 µM
Cc1ccccc1C(=O)NC1CCN(Cc2nnnn2Cc2ccc(F)cc2)CC1 > 76.9 µM
Cc1cccc(N2CCCn3c2nc2c3c(=O)n(CC(=O)OCc3ccccc3)c(=O)n2C)c1 > 76.9 µM
COCCn1c(SCc2csc(-c3ccccc3)n2)nc2ccccc21 > 76.9 µM
Clc1ccccc1-c1nnc2sc(-c3ccc(Br)o3)nn12 > 76.9 µM
O=C(NCc1ccccn1)C1CCN(S(=O)(=O)c2cccs2)CC1 > 76.9 µM
COc1ccc(OC)c(NC(=O)CSc2nnc(-c3ccco3)n2-c2ccccc2)c1 > 76.9 µM
O=C(c1ccc(COc2c(F)c(F)cc(F)c2F)o1)N1CCN(c2ccc(Cl)cc2)CC1 > 15.4 µM
CCN(Cc1cc2cc(C)ccc2[nH]c1=O)C(=O)c1cccc(OC)c1 > 76.9 µM
CN1CCN(S(=O)(=O)c2ccc(NC(=O)C3CCCO3)cc2)CC1 (configuration not stated) > 76.9 µM
O=C(CC1(O)C(=O)Nc2ccccc21)c1ccc(-n2cccc2)cc1 (configuration not stated) > 76.9 µM
CCCc1cc(=O)[nH]c(SCC(=O)NC(=O)c2ccccc2)n1 > 76.9 µM
O=C(c1nn2cccnc2c1Cl)N1CCN(c2ccccc2)CC1 > 76.9 µM
COc1ccc(-c2nnc3ccc(SCC(=O)N4CCN(c5ccccc5)CC4)nn23)cc1 > 76.9 µM
CCOc1cc(N2CCOCC2)c(OCC)cc1NC(=O)CSc1cccc[n+]1[O-] > 76.9 µM
CCOc1ccc(NC(=O)CSc2nnc(-c3ccccc3)n2N)cc1 > 76.9 µM
CCCn1c(SCC(=O)/C(C#N)=C(\C)N)n[nH]c1=O > 76.9 µM
Cc1cc(C)n(C(CC(=O)O)C(=O)O)n1 (configuration not stated) > 76.9 µM
CC(=O)c1c(C)[nH]c(C(=O)NCc2ccccn2)c1C > 76.9 µM
COCCCn1c(=NC(=O)c2ccc3c(c2)OCO3)c(C#N)cc2c(=O)n3cccc(C)c3nc21 > 76.9 µM
C=CCn1c(CCC(=O)O)ccc1-c1ccccc1 > 76.9 µM
CCOC(=O)C(Cc1ccccc1)NS(=O)(=O)c1ccc(NC(C)=O)cc1 (configuration not stated) > 76.9 µM
CC1CCCN(S(=O)(=O)c2ccc(Br)s2)C1 (configuration not stated) > 76.9 µM
C=CCn1c(=O)c2c(C)c(C)sc2n2c(Nc3ccccc3)nnc12 > 76.9 µM
CSc1nsc(SC)c1NC(=O)N1CCCC1 > 76.9 µM
CC(=O)c1ccc(NC(=O)CSCCO)cc1 > 76.9 µM
COc1cccc(N(CC(=O)N2CCN(C)CC2)S(=O)(=O)c2ccccc2)c1 > 76.9 µM
COc1ccccc1OCc1nnc(SCC(=O)N2CCCCC2)n1-c1ccccc1 > 76.9 µM
CCn1c(SCC(=O)Nc2nc3ccc(C)cc3s2)nc2c(c1=O)SC(C)C2 (configuration not stated) > 76.9 µM
CCOCCOC(=O)C1=C(C)Nc2ccc(C)cc2S1 > 76.9 µM
COc1cccc(C(=O)/C=C/Nc2cc(C)ccc2O)c1 > 76.9 µM
Oc1ccccc1C(=S)N1CCCCCC1 > 76.9 µM
CCOC(=O)CNC(=O)CSc1nnnn1-c1cc(C)ccc1C > 76.9 µM
Cc1cc(C)nc(N2CCCC(C(=O)NCc3cccc(C(F)(F)F)c3)C2)n1 (configuration not stated) > 76.9 µM
COc1ccc(C(=O)CSc2nc(SC)ns2)cc1OC > 76.9 µM
Cc1cc(OCC(=O)c2ccc(F)cc2)ccc1N1C(=O)CCC1=O > 76.9 µM
Cc1ccc(-c2c3c(=O)n(C)c(=O)n(C)c3cn2-c2ccccc2O)cc1 > 76.9 µM
